From PubChem BioAssay AID463173 (ICCB-Longwood Screening Facility, Harvard Medical School, 2010)
Screen size: about 52,000 compounds; about 1,700 (3.3%) were called active. Rule as the data show it: active = survival mostly below about 52% (no sharp cut-off); inactive = mostly above about 56%. The list shows a part of the results.

system: Wild type; test: S. aureus survival, RN4220 and DeltatarO strains – OD600, teichoic acid synthesis inhibitors, primary screen (AID 463173); conditions: S. aureus RN4220 wild type/DeltatarO growth, OD600, 18 h, stronger effect = lower value, screened at 18.75 µg/mL (by protocol)

SMILES	survival
Cc1ccccc1CNC(=O)C1CCCN(S(=O)(=O)N(C)c2ccc(F)cc2)C1 (configuration not stated)	inactive: 90%
CCC(=O)N1CCc2cc(Br)cc(S(=O)(=O)CCC(=O)NCCc3ccc(Cl)cc3)c21	inactive: 80%
CCc1cccc(NC(=O)c2ccc(CN3C(=O)C(C)=C(c4ccc(OC)cc4)S3(=O)=O)cc2)c1	inactive: 82%
CCc1ccc2oc(-c3cccc(NC(=O)c4ccc(N5CCC(C)CC5)c([N+](=O)[O-])c4)c3)nc2c1	inactive: 71%
COc1cccc(NC(=O)Cn2cc(S(=O)(=O)N3CCCC3)c(S(=O)(=O)N3CCCC3)c2)c1	inactive: 99%
Cc1ccccc1CNC(=O)Cn1ncn2nc(-c3cccs3)cc2c1=O	inactive: 120%
CCOc1ccccc1CNC(=O)c1cc2cc(S(=O)(=O)N3CCCCC3)ccc2n1C	inactive: 75%
CC(=O)Nc1ccc(NC(=O)CCNS(=O)(=O)c2cccc3nsnc23)cc1	inactive: 89%
CCC(Oc1ccccc1)C(=O)Nc1ccc2oc(-c3ccc(OC)cc3)nc2c1 (configuration not stated)	inactive: 116%
Cc1cccc(CSc2cn(CC(=O)N3CCCC3)c3ccccc23)c1	inactive: 67%
Cc1cc(N2CCCCC2)nc2ccc(NC(=O)/C=C/c3ccccc3OC(C)C)cc12	inactive: 84%
CC1(C(=O)C[n+]2cccc(C(N)=O)c2)CCC(=O)O1 (configuration not stated)	inactive: 102%
O=C(COc1ccc(S(=O)(=O)NC2CCCCC2)cc1)Nc1ccc(C(F)(F)F)cc1	inactive: 80%
CCOc1ccc(N(CC)S(=O)(=O)N2CCCC(C(=O)NCc3ccccc3Cl)C2)cc1 (configuration not stated)	inactive: 85%
CCOc1cccc(CC(=O)N2CCc3c([nH]c4ccccc34)C2c2ccc(F)cc2)c1OCC (configuration not stated)	inactive: 65%
Cc1ccc(CNC(=O)CSCc2ccc(F)cc2)cc1	inactive: 101%
O=S(=O)(c1ccccc1)n1nc(-c2ccccc2)nc1NCc1ccc(Cl)cc1	inactive: 73%
Cc1ccc(C(=O)COC(=O)C(CC(C)C)NC(=O)C2CCC(C)CC2)cc1 (configuration not stated)	inactive: 85%
CCc1ccccc1NC(=O)c1ccc2nc(CCc3ccccc3)oc2c1	inactive: 80%
CCCCNC(=O)CCn1c(=O)c2ccccc2n(Cc2ccccc2C#N)c1=O	inactive: 89%
CCOc1ccc(CC(=O)Nc2c(C(=O)c3ccc(C)cc3)oc3ccccc23)cc1OCC	inactive: 56%
CCC(=O)N1CCc2cc(Br)cc(S(=O)(=O)N3CCCC(C(=O)Nc4cccc(Cl)c4C)C3)c21 (configuration not stated)	inactive: 94%

SMILES	survival
COc1cc(C2N=C(N)Nc3nc4ccccc4n32)ccc1OCCC(C)C (configuration not stated)	inactive: 85%
O=C(Cc1cccc([N+](=O)[O-])c1)NCc1nc2cccnc2n1Cc1ccc(F)cc1	inactive: 133%
CC(=O)c1cccc(NC(=O)C2CCCN(c3nnc(-n4cccc4)s3)C2)c1 (configuration not stated)	inactive: 71%
CCOc1ccc(NS(=O)(=O)c2cc(Br)cc3c2N(C(=O)C2CC2)CC3)cc1	inactive: 63%
CCCN(CCC)CCCNC(=O)C1CCCN(S(=O)(=O)c2cccc3nsnc23)C1 (configuration not stated)	inactive: 80%
Cn1c(=O)cc(OCCCC(=O)Nc2ccc(F)cc2)c2ccccc21	inactive: 129%
Cc1ccccc1-c1nc(CS(=O)(=O)CC(=O)N2CCN(c3ccccc3)CC2)c(C)o1	inactive: 74%
CCOC(=O)c1cc(C)n(CC2CCC(C(=O)Nc3ccc(Cl)cc3)CC2)c1C (configuration not stated)	inactive: 64%
CCC1CCc2nc3sc(C(=O)Nc4ccc(F)cc4F)c(N)c3cc2C1 (configuration not stated)	inactive: 92%
COc1cc(OC)c(NC(=O)NC(C)c2c(-n3cccc3)sc(C)c2C)cc1Cl (configuration not stated)	inactive: 127%
Cc1ccc2cccc(NC(=O)c3ccc(-c4cccc([N+](=O)[O-])c4)o3)c2n1	inactive: 93%
CCC(C)C(=O)N1CCCC(c2nc(-c3cccs3)no2)C1 (configuration not stated)	inactive: 112%
COc1cc(NS(=O)(=O)c2ccc(NC(=O)c3ccccc3C(=O)O)cc2)nc(OC)n1	inactive: 68%
CCCCNC(=O)CSc1nc2nc(C)c(Cc3ccccc3C)c(C)n2n1	inactive: 67%
CC(=O)Nc1cccc(C(=O)NCc2ccc3c(c2)CCN3C(=O)c2ccccc2)c1	inactive: 63%
CCOc1ccc(CCNC(=O)Cn2nnc(-c3ccccc3)n2)cc1OCC	inactive: 98%
COc1ccc(/C=C/c2nc(C#N)c(NCCc3ccc(OC)c(OC)c3)o2)cc1OC	inactive: 113%
COc1cccc(C(=O)Nc2cc(-c3ccccc3)no2)c1	inactive: 81%
CC(C)CC(=O)Nc1ccc(C(=O)OCc2cc(=O)n3nc(C(C)C)sc3n2)cc1	inactive: 138%
COc1ccc(C(=O)N2CC(=O)Nc3ccc(F)cc3C2c2ccc(F)cc2)c(OC)c1 (configuration not stated)	inactive: 79%
Cc1cc(C)cc(NS(=O)(=O)c2ccc3[nH]cc(C(=O)N4CCCC4)c(=O)c3c2)c1	inactive: 77%
CCOc1ccccc1NC(=O)Cn1cnc2onc(-c3ccc(F)cc3)c2c1=O	inactive: 82%

SMILES	survival
O=C(OCc1cc(=O)n2nc(C3CC3)sc2n1)c1ccc(F)cc1	inactive: 82%
Cc1ccc(NC(=O)c2oc3ccccc3c2NC(=O)c2cc3ccccc3o2)cc1	inactive: 70%
O=C(CSc1cn(CCNC(=O)c2c(F)cccc2F)c2ccccc12)Nc1ccc2c(c1)OCCO2	inactive: 72%
CC(C)CC(NS(=O)(=O)c1ccc2c(c1)oc(=O)n2C)C(=O)NCCc1ccc(Cl)cc1 (configuration not stated)	inactive: 79%
COC(=O)c1ccc(NC(=O)c2cc(S(=O)(=O)N3CCc4ccccc43)cn2C)cc1	inactive: 101%
COc1ccc(-n2c(=O)c3ccc(C(=O)NCc4ccc(C)cc4)cc3n(CC(=O)Nc3ccc(F)cc3)c2=O)cc1	inactive: 83%
O=C(NCc1cccnc1)C1CCN(Cc2cc3ccccc3n2Cc2cccc(Cl)c2)CC1	inactive: 75%
CCCCc1nnc(SCc2cc(=O)c3cc(C(=O)OCC)ccc3[nH]2)n1C	inactive: 68%
O=C(Nc1cccc(C(=O)N2CCN(c3ccc(Cl)cc3)CC2)c1)c1nsc2ccccc12	inactive: 129%
CC1=C(C(N)=O)C(c2cccc(Br)c2)n2nc(SCc3ccccc3)nc2N1 (configuration not stated)	inactive: 74%
CS(=O)(=O)Nc1ccc2c(c1)OCO2	inactive: 94%
COc1cc(-c2nnc(SCC(=O)Nc3ccc(F)c(Cl)c3)o2)cc(OC)c1OC	inactive: 111%
Cc1cc(C)n2nc(SCC(=O)Nc3ccccc3)nc2n1	inactive: 76%
C=CCSc1nnnn1-c1ccc(OC)cc1	inactive: 111%
Cc1cc(NC(=O)C(C)C)cc(-c2nc3ncccc3o2)c1O	inactive: 68%
Cc1ccc2nc(-c3ccc(O)cc3)c(Nc3ccc4c(c3)OCO4)n2c1	inactive: 71%
C1CN(c2nc(N3CCOCC3)nc(N3CCOCC3)n2)CCN1	inactive: 108%
CC(C)N(Cc1ccccc1)C(=O)CCS(=O)(=O)c1cc2c(cc1Cl)NC(=O)CO2	inactive: 112%
Cc1oc(-c2ccc(Cl)cc2)nc1CS(=O)CC(=O)NCc1ccc(Cl)cc1 (configuration not stated)	inactive: 84%
Cc1cc2nc(-c3cc(NC(=O)c4cc5ccccc5o4)ccc3Cl)oc2cc1C	inactive: 72%
COc1cccc(C(=O)Nc2ccccc2OCc2cc(=O)n3cc(C)ccc3n2)c1	inactive: 69%
CCc1ccc(NC(=O)CSc2nc3n[nH]c(C)c3c(=N)n2-c2ccccc2C)cc1	inactive: 76%

SMILES	survival
CCCNC(=O)C1CCN(S(=O)(=O)c2ccc3c(c2)CCCN3C(C)=O)CC1	inactive: 128%
CC1CC(C)CN(c2nc3c(c(=O)[nH]c(=O)n3C)n2Cc2ccccc2F)C1 (configuration not stated)	inactive: 108%
Cc1ccn(C(=O)c2ccc(NC(=O)C3CCCCC3)cc2)n1	inactive: 100%
COc1ccc(N(CC(=O)NCCc2cccc(C)c2)S(=O)(=O)c2c(C)nn(C)c2C)cc1	inactive: 71%
COc1ccccc1N1CCN(C(CNC(=O)C(=O)NCCCN(C)C)c2cccnc2)CC1 (configuration not stated)	inactive: 85%
CCOC(=O)C1=C(CS(=O)(=O)c2c(C)cc(C)cc2C)NC(=O)NC1c1cccc(OC)c1 (configuration not stated)	inactive: 73%
Cc1ccccc1OCc1nnc(SCc2cc(=O)c3ccccc3[nH]2)n1C	inactive: 113%
N#Cc1c(NC(=O)c2cc3nc(-c4ccc(Br)cc4)cc(C(F)(F)F)n3n2)sc2c1CCCC2	active: 0%
O=C1CC(c2ccccc2C(F)(F)F)c2c(c3ccccc3[nH]c2=O)O1 (configuration not stated)	inactive: 69%
CCOc1ccc(-c2c(C)nn3c(C)c(C(=O)Nc4ccccc4C(=O)OC)cnc23)cc1OCC	active: -6%
CC12CCCCN1CCCc1c2[nH]c2ccccc12 (configuration not stated)	inactive: 110%
COC(=O)c1cccc(Nc2c(-c3ccc(O)c(OC)c3)nc3nc[nH]n23)c1	inactive: 79%
CCOc1ccc2[nH]c(=O)c(CN(Cc3cccnc3)S(=O)(=O)c3ccccc3)cc2c1	inactive: 106%
COCc1cc(C)nc2sc3c(c12)NC(c1ccc(O)cc1)N(c1ccc(OC)cc1)C3=O (configuration not stated)	inactive: 83%
CCOc1ccc(NC(=O)C2Cc3ccccc3N2C(=O)c2ccccc2)cc1 (configuration not stated)	inactive: 80%
CCOC(=O)c1cnc(SC2CCc3ccccc3C2=O)nc1N (configuration not stated)	inactive: 115%
COc1ccc2c(c1)CCc1c(C(=O)Nc3cc(C)ccc3O)noc1-2	inactive: 96%
CC(C)NC(=O)CSc1nc2ccccc2n1CC(=O)N1CCOCC1	inactive: 108%
CCCCOc1ccc(CNC(=O)C2CCN(c3nnc(-n4cccc4CNc4ccc(C)cc4)s3)CC2)cc1	inactive: 93%
COCCn1c(C)cc(O)c(C(c2ccccc2)N2CCN(C)CC2)c1=O (configuration not stated)	inactive: 87%
Cc1cccc(NC(=O)CSc2nc3ccc(NC(=O)c4ccco4)cc3s2)c1	inactive: 67%
